By IC50 is meant the dose at which the fit gives 50% viability; where the fit passes the top or lowest dose, that dose stands as a limit. For AUC the same curve is integrated over the 256-fold range of doses and scaled to a fraction; it is 1 without any effect and falls as sensitivity rises. For some assays here: An inferred top dose is not printed in the source and was worked back from the curve model. For some assays here: Where an entry number is given, a second screen of the drug exists; the two often differ.
Experiments:
Assay in all cases: Viability of human cancer cell lines after 72 h of drug (GDSC screen)
NVP-TAE684 = compound: COc1cc(N2CCC(N3CCN(C)CC3)CC2)ccc1Nc1ncc(Cl)c(Nc2ccccc2S(=O)(=O)C(C)C)n1 [NVP-TAE684]; settings: top dose 2 µM
Method: (§1)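 Human cancer cell lines in 384-well plates, medium with 10% serum, drug for 72 h over a 256-fold dose range (nine 2-fold or five 4-fold steps up to the top dose). Adherent lines were fixed and stained with the nucleic acid dye Syto60, suspension lines read with resazurin; signal relative to control wells, capped at 0 and 100%. One two-parameter sigmoid per drug and line, fitted in a mixed model over all curves with the slope shared within a line.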

JQ1 = compound: Cc1sc2c(c1C)C(c1ccc(Cl)cc1)=N[C@@H](CC(=O)OC(C)(C)C)c1nnc(C)n1-2 [JQ1]
Method: as §1

FTI-277 = compound: COC(=O)[C@H](CCSC)NC(=O)c1ccc(NC[C@@H](N)CS)cc1-c1ccccc1 [FTI-277]; settings: top dose 1.024 µM; top dose inferred
Method: as §1

YM155 = compound: COCC[n+]1c2c(n(Cc3cnccn3)c1C)C(=O)c1ccccc1C2=O [YM155]; settings: top dose 5.12 µM
Method: as §1

JNJ-26854165 = compound: c1ccc2c(CCNc3ccc(Nc4ccncc4)cc3)c[nH]c2c1 [JNJ-26854165]; settings: top dose 10 µM
Method: as §1

CGP-60474 = compound: OCCCNc1cc(-c2ccnc(Nc3cccc(Cl)c3)n2)ccn1 [CGP-60474]; settings: top dose 0.256 µM; top dose inferred
Method: as §1

AMG-706 = compound: CC1(C)CNc2cc(NC(=O)c3cccnc3NCc3ccncc3)ccc21 [AMG-706]; settings: top dose 2 µM; top dose inferred
Method: as §1

OSI-906 = compound: C[C@]1(O)C[C@@H](c2nc(-c3ccc4ccc(-c5ccccc5)nc4c3)c3c(N)nccn32)C1 [OSI-906]; settings: top dose 2.56 µM; top dose inferred
Method: as §1

Cyclopamine = compound: CC1=C2C[C@H]3[C@@H](CC=C4C[C@@H](O)CC[C@@]43C)[C@@H]2CC[C@]12O[C@@H]1C[C@H](C)CN[C@H]1[C@H]2C [Cyclopamine]; settings: top dose 16 µM; top dose inferred
Method: as §1

Belinostat = compound: O=C(/C=C/c1cccc(S(=O)(=O)Nc2ccccc2)c1)NO [Belinostat]; settings: top dose 20 µM; top dose inferred
Method: as §1

SB-715992 = compound: Cc1ccc(C(=O)N(CCCN)[C@@H](c2nc3cc(Cl)ccc3c(=O)n2Cc2ccccc2)C(C)C)cc1 [SB-715992]; settings: top dose 0.128 µM; top dose inferred
Method: as §1

NSC-207895 = compound: CN1CCN(c2ccc([N+](=O)[O-])c3no[n+]([O-])c23)CC1 [NSC-207895]; settings: top dose 20 µM; top dose inferred
Method: as §1

Docetaxel = compound: CC(=O)O[C@@]12CO[C@@H]1C[C@H](O)[C@@]1(C)C(=O)[C@H](O)C3=C(C)[C@@H](OC(=O)[C@H](O)[C@@H](NC(=O)OC(C)(C)C)c4ccccc4)C[C@@](O)([C@@H](OC(=O)c4ccccc4)[C@H]21)C3(C)C [Docetaxel]; settings: top dose 0.0125 µM
Method: as §1

JNK Inhibitor VIII = compound: CCOc1nc(NC(=O)Cc2cc(OC)ccc2OC)cc(N)c1C#N [JNK Inhibitor VIII]; settings: top dose 10 µM; top dose inferred
Method: as §1

[1] = top dose 1 µM, screen: GDSC drug entry 1218, top dose inferred
[2] = top dose 2.56 µM, screen: GDSC drug entry 163

Row | Cell Line | AUC (NVP-TAE684) | IC50 (NVP-TAE684) [nM] | AUC (JQ1; [1]) | IC50 (JQ1; [1]) [nM] | AUC (JQ1; [2]) | IC50 (JQ1; [2]) [nM] | AUC (FTI-277) | IC50 (FTI-277) [nM] | AUC (YM155) | IC50 (YM155) [nM] | AUC (JNJ-26854165) | IC50 (JNJ-26854165) [nM] | AUC (CGP-60474) | IC50 (CGP-60474) [nM] | AUC (AMG-706) | IC50 (AMG-706) [nM] | AUC (OSI-906) | IC50 (OSI-906) [nM] | AUC (Cyclopamine) | IC50 (Cyclopamine) [nM] | AUC (Belinostat) | IC50 (Belinostat) [nM] | AUC (SB-715992) | IC50 (SB-715992) [nM] | AUC (NSC-207895) | IC50 (NSC-207895) [nM] | AUC (Docetaxel) | IC50 (Docetaxel) [nM] | AUC (JNK Inhibitor VIII) | IC50 (JNK Inhibitor VIII) [nM]
1 | MHH-PREB-1 (B-cell leukaemia, suspension) | 0.96 | > 2000 | 0.773 | 349 | 0.732 | 674 | 0.988 | > 1020 | 0.028 | < 20 | 0.86 | 7020 | 0.707 | 57 | 0.988 | > 2000 | 0.984 | > 2560 | 0.904 | > 16000 | 0.163 | 136 | 0.57 | 12.1 | 0.879 | 16900 | 0.884 | 11.1 | 0.989 | > 10000
2 | LB771-HNC (head and neck, adherent) | 0.788 | 1120 | 0.979 | > 1000 | 0.585 | 290 | 0.964 | > 1020 | 0.584 | 575 | 0.929 | > 10000 | 0.682 | 59.2 | 0.982 | > 2000 | 0.586 | 293 | 0.962 | > 16000 | 0.562 | 1920 | 0.847 | > 128 | 0.956 | > 20000 | 0.928 | > 12.5 | 0.982 | > 10000
3 | NCI-SNU-16 (stomach, suspension) | 0.778 | 712 |  |  | 0.991 | > 2560 | 0.991 | > 1020 | 0.365 | 143 | 0.948 | > 10000 | 0.73 | 65.9 | 0.974 | > 2000 | 0.991 | > 2560 | 0.98 | > 16000 | 0.753 | 5980 | 0.955 | > 128 | 0.991 | > 20000 | 0.839 | 7.12 | 0.988 | > 10000
4 | NCI-H747 (large intestine, adherent) | 0.704 | 539 | 0.962 | > 1000 | 0.658 | 487 | 0.969 | > 1020 | 0.039 | < 20 | 0.898 | > 10000 | 0.668 | 52.2 | 0.981 | > 2000 | 0.758 | 1070 | 0.978 | > 16000 | 0.495 | 1210 | 0.89 | > 128 | 0.934 | > 20000 | 0.875 | > 12.5 | 0.982 | > 10000
5 | L-540 (Hodgkin lymphoma, suspension) | 0.899 | > 2000 | 0.989 | > 1000 | 0.953 | > 2560 | 0.94 | > 1020 | 0.983 | > 5120 | 0.922 | > 10000 | 0.765 | 84 | 0.99 | > 2000 | 0.986 | > 2560 | 0.983 | > 16000 | 0.988 | > 20000 | 0.888 | 117 | 0.98 | > 20000 | 0.918 | > 12.5 | 0.99 | > 10000
6 | HD-MY-Z (Hodgkin lymphoma, adherent) | 0.916 | > 2000 | 0.982 | > 1000 | 0.976 | > 2560 | 0.986 | > 1020 | 0.024 | < 20 | 0.814 | 5460 | 0.685 | 52.8 | 0.98 | > 2000 | 0.986 | > 2560 | 0.965 | > 16000 | 0.397 | 651 | 0.692 | 27.8 | 0.83 | 12700 | 0.591 | 1.39 | 0.979 | > 10000
7 | LB647-SCLC (small cell lung carcinoma, semi-adherent) | 0.85 | 1810 | 0.983 | > 1000 | 0.862 | > 2560 | 0.982 | > 1020 | 0.374 | 138 | 0.939 | > 10000 | 0.9 | > 256 | 0.967 | > 2000 | 0.774 | 1130 | 0.913 | > 16000 | 0.802 | 11200 | 0.746 | 44.7 | 0.874 | > 20000 | 0.89 | > 12.5 | 0.977 | > 10000
8 | GCIY (stomach, adherent) | 0.755 | 761 |  |  | 0.732 | 807 | 0.973 | > 1020 | 0.245 | 52.6 | 0.846 | 8780 | 0.774 | 114 | 0.968 | > 2000 | 0.9 | > 2560 | 0.944 | > 16000 | 0.378 | 550 | 0.933 | > 128 | 0.781 | 9470 | 0.919 | > 12.5 | 0.979 | > 10000
